Each structure is given as a SMILES string. About 540 (0.36%) of roughly 150,000 compounds showed an effect of 50% or more. The list shows a part of the results.

The subject of the experiment is Plasmodium falciparum. Briefly: Primary screen in NF54 nanoGlo assay, in single point, at 2uM, 72h; a lower Z score goes with more inhibition. Type of experiment: functional, Erythrocyte. As to conditions: timepoint 72 hour.
As to `CCn1cc(C)c(C(=O)O)c1CC(=O)NCCOC`, the “% Inhibition” value is -10% and the Z score is 1.32.

For the molecule `CCn1ccnc1CN1CC[C@]2(CCCO2)CCC1=O`, the “% Inhibition” value is on record as -5% and the Z score is 0.74.

For the molecule `Cn1cc(NC(=O)NC(C)(C)CC2Cc3ccccc3C2)cn1`, the “% Inhibition” value is given as -4% and the Z score was determined as 0.71.

As for `Cc1nc2ccccc2n1CCNC1CC(CF)(CF)C1`, the “% Inhibition” value is on record as -1% and the Z score is given as 0.21.

`Cc1ccc(-c2n[nH]cc2CN(C)Cc2cc(-c3ccccc3)on2)cc1C`: the “% Inhibition” value is on record as -20% and the Z score turned out to be 2.72.

As for `CC(C)COCCC(=O)N1CCC[C@H](n2cccn2)C1`, the “% Inhibition” value is on record as -4% and the Z score is given as 0.64.

With `CNc1ncccc1CN(C)C[C@H]1CCCN1C`, the “% Inhibition” value is on record as -14% and the Z score turned out to be 1.88.

With `O=S(=O)(NC[C@H](O)C(F)(F)F)c1ccc(Cl)s1`, the “% Inhibition” value was -10% and the Z score stood at 1.2.

`CCN1CCN(C(=O)CCNc2c(-c3cccc(C)c3)nc3cnccn23)CC1`: the “% Inhibition” value is reported as -21% and the Z score stood at 2.97.

`Cc1ccc(Oc2nc(N3CCC(C)CC3)nc3c2CN(C(=O)c2cnc4ccccc4n2)CC3)cc1`: the “% Inhibition” value worked out at 1% and the Z score is listed as -0.24.

`O=C(CCc1ccccc1)N1C[C@@H]2OC(=O)N(CCCN3CCOCC3)[C@@H]2C1`: the “% Inhibition” value is on record as -11% and the Z score was found to be 1.36.

With `O=C(NC(c1ccc(F)cc1)c1ccccn1)C1CC2C=CC1C2` (stereo unspecified), the “% Inhibition” value worked out at 5% and the Z score was -0.67.

With `COC(=O)CC1(NC(=O)c2cc(C)sn2)CCC1`, the “% Inhibition” value is given as 10% and the Z score was -1.23.

Take `NC(=O)[C@H]1CCCN(CCNC(=O)Nc2cccc(-c3cscn3)c2)C1`: the “% Inhibition” value is -5% and the Z score came to 1.14.

Consider `CNC(=O)[C@@H](C#N)C(=O)c1cccc(S(=O)(=O)NC2CCCC2)c1`, for which the “% Inhibition” value is on record as -12% and the Z score is listed as 1.38.

As for `O=C(NCc1ccc(C(F)F)cc1)NCC1CCC(O)C1` (stereo unspecified), the “% Inhibition” value stood at 0% and the Z score was -0.03.

As for `COC(=O)c1ccc(C(=O)Nc2ccncc2NC(=O)c2ccc(C(=O)OC)cc2)cc1`, the “% Inhibition” value is -2% and the Z score was 0.35.

Turning to `Cc1ccc(CN(C)C(=O)Cn2cnc3c2c(=O)n(C)c(=O)n3C)c(C)c1`, the “% Inhibition” value is reported as -10% and the Z score was found to be 1.34.

As for `N#CC1(C(=O)Nc2ccc3c(c2)CCC3)CCCC1`, the “% Inhibition” value was -4% and the Z score was found to be 0.7.

Regarding `CCN(C(=O)CCN(C)Cc1ncc[nH]1)c1ccccc1`, the “% Inhibition” value is on record as 19% and the Z score is -2.4.

For `CCC(CC)(NC(=O)C1CN(C(=O)c2nccc3ccsc23)C1)C(N)=O`, the “% Inhibition” value is recorded as -12% and the Z score is on record as 1.8.

Take `Cc1cnn(Cc2ccccc2Cl)c1NC(=O)N[C@H]1CCCNC1=O`: the “% Inhibition” value was -12% and the Z score is listed as 1.97.

`CC1CN(C(=O)CC2CCCCC2(C)C)CCS1(=O)=O` (stereo unspecified): the “% Inhibition” value is -11% and the Z score came to 1.25.

Consider `CN(CC(C)(C)CN)c1nc(-c2ccncc2)nc2c1CCC2`, for which the “% Inhibition” value is given as -3% and the Z score is reported as 0.29.

As for `CCN1C[C@@H](CN(C)C(=O)Nc2cc(C)c(Cl)cc2OC)CC1=O`, the “% Inhibition” value is given as -10% and the Z score stood at 1.

In the case of `CC(=O)c1ccc(C(=O)NC2CC(C)N(C3CC3)C2)[nH]1` (stereo unspecified), the “% Inhibition” value is on record as -10% and the Z score came to 1.53.

As for `Cc1nccn1CCNC(=O)C[C@@H]1NC(=O)N(CCc2ccccc2)C1=O`, the “% Inhibition” value is -5% and the Z score is 0.67.

In the case of `COc1cccc(CN2C(=O)[C@H]3C(C(=O)Nc4cccc(Cl)c4)[C@H]4C=C[C@@]3(O4)C2C(=O)NC2CCCCC2)c1` (stereo partly specified), the “% Inhibition” value is -8% and the Z score amounted to 1.28.

For the molecule `O=C(Nc1ccc(Cl)cc1)C1C2/C=C\CCCCC21` (stereo unspecified), the “% Inhibition” value is 0% and the Z score is listed as -0.06.

In the case of `c1ccc(C2CC(c3cccs3)Nc3ncnn32)cc1` (stereo unspecified), the “% Inhibition” value was -12% and the Z score came out at 1.81.

In the case of `Cc1c(Br)c(C(=O)N(Cc2ccncc2)C2CC2)nn1C`, the “% Inhibition” value was -17% and the Z score was determined as 2.57.

For `CC(C(=O)NC1CCCC1)N1CC2CCC(O)C2C1` (stereo unspecified), the “% Inhibition” value is recorded as -3% and the Z score turned out to be 0.31.

On to `O=C1NC2(CCCC2)C(=O)N1Cc1cccc(F)c1`, for which the “% Inhibition” value was -6% and the Z score is 0.84.

On to `CN(C)CCN(C(=O)Nc1ccc2c(c1)OCCO2)C1CCOCC1`, for which the “% Inhibition” value was -1% and the Z score came out at 0.2.

On to `O=C(C1CCCn2nccc21)N1CC[C@@H]2CC[C@@]21c1cccnc1` (stereo partly specified), for which the “% Inhibition” value is -23% and the Z score amounted to 2.41.

With `CC[C@@H](O)CN1CC2CCC(NC(=O)OC(C)(C)C)C2C1` (stereo partly specified), the “% Inhibition” value is listed as -4% and the Z score is on record as 0.65.

As for `Cc1cc(=O)n(CC(=O)Nc2ccc3c(c2)OCCO3)c(N2CCCC2)n1`, the “% Inhibition” value was -15% and the Z score turned out to be 1.62.

Regarding `CCNC(=O)N1CCN(C(=O)c2cnc(-c3ccccc3)nc2)CC1`, the “% Inhibition” value was 1% and the Z score was -0.18.

On to `COCCn1cnnc1[C@H](C)NC(=O)c1cc(Cl)c[nH]1`, for which the “% Inhibition” value amounted to 2% and the Z score was -0.29.

As for `c1cn2nccc2c(N2CCCN(c3ccc4nncn4n3)CC2)n1`, the “% Inhibition” value is -14% and the Z score was found to be 1.59.

For the molecule `CCc1cccc(C(=O)NCCc2nnc3n2CCN(C)C3=O)c1O`, the “% Inhibition” value is reported as -7% and the Z score amounted to 0.87.

Regarding `CC1COCCC1CNC(=O)N1CCNC(=O)CC1` (stereo unspecified), the “% Inhibition” value is given as 6% and the Z score was -1.11.

For `CC[C@@H](c1cccnc1)N(C)Cc1cnc2c(-c3ccccc3)cnn2c1`, the “% Inhibition” value was -10% and the Z score came out at 1.22.
